Among all 45,000 compounds or so, about 200 (0.44%) were called active. Inconclusive results (about 7%) are left out. The call rests on the fitted dose curve; in most records, active means well fitted activation curve with a large enough effect; inconclusive means small, poorly fitted or top-dose-only effect; inactive means no such curve, though single readings can be large or run the other way. Some of the results follow.

The assay is described as follows: qHTS of TDP-43 Inhibitors: NCGC Sytravon Library Screen. Further: 0% is about no effect; nearly all actives have a fitted effect of over 55% in size. The following applies: yeast TDP-43 toxicity rescue, BacTiter-Glo growth, 24 h; series mostly up to 46.1 µM; growth rescue (activation): at the top concentration. A digest of the protocol:
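TDP-43-expressing yeast, pregrown in raffinose, seeded at OD600 0.02 in galactose medium with compound for 24 hr at 30 deg C. Growth read by BacTiter-Glo luminescence, so rescue of toxicity appears as activation.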
As to `Cc1ccc(C2(C)NC(=O)N(CC(=O)NC(C)c3ccccc3)C2=O)cc1` (centres undefined), the “growth rescue (activation)” value is inactive: -23.6%.
As to `CN1C(=O)N(C)C(c2cccc([N+](=O)[O-])c2)C2=C1CCCC2=O` (centres undefined), the “growth rescue (activation)” value is inactive: 6.67%.
Take `Fc1ccccc1-c1nc2ccccc2[nH]1`: the “growth rescue (activation)” value was inactive: 3.8%.
Regarding `CC(C)(C)c1ccc(C2=NC(C)(C)N(CC(=O)Nc3ccc(F)c(F)c3)C2=O)cc1`, the “growth rescue (activation)” value is inactive: 9.78%.
In the case of `COc1ccc(N(CC(=O)Nc2ccccc2F)S(=O)(=O)c2ccc(C)c([N+](=O)[O-])c2)cc1`, the “growth rescue (activation)” value was inactive: 13.2%.
The value for `C=CCn1c(COc2ccccc2)nc2ccccc21` was inactive: 23.2%.
The value for `CCOC(=O)N/N=C(C)/C=C/c1ccco1` was inactive: 7.09%; that for `COc1cccc(NC(=O)Cc2c(O)c3ccccc3[nH]c2=O)c1` was inactive: -3.38%.
For `CCOc1ccc(Nc2nc(NCC(=O)O)nc(N)c2[N+](=O)[O-])cc1`, the “growth rescue (activation)” value is inactive: 7.13%.
With `O=C(COc1ncnc2ccccc12)Nc1ccc(Cl)c(S(=O)(=O)N2CCOCC2)c1`, the “growth rescue (activation)” value was inactive: 11.9%.
The value for `Cc1ccc(C)c(CN2CCC(n3nccc3NC(=O)C3CCCC3)CC2)c1` was inactive: 16.3%.
In the case of `CC(C)C(=O)NC(NCC1CCCO1)C(Cl)(Cl)Cl` (centres undefined), the “growth rescue (activation)” value is inactive: -6.4%.
As for `COc1cc(C(=S)N2CCN(c3cccc(Cl)c3)CC2)ccc1O`, the “growth rescue (activation)” value was inactive: 6.27%.
The value for `COC(=O)c1ccccc1NC(=O)C1(S(=O)(=O)c2ccc(Cl)cc2)CC1` was inactive: -1.95%; that for `NC(=O)CSc1nc2scc(-c3ccc(Cl)cc3)c2c(=O)n1Cc1ccccc1` was inactive: 4.34%.
Consider `CCc1ccc(-c2cn3c(n2)SCC3)cc1`, for which the “growth rescue (activation)” value is inactive: 6.06%.
Consider `S=c1[nH]nc(C2CC2)n1Cc1ccccc1`, for which the “growth rescue (activation)” value is inactive: -1.1%.
Turning to `O=C(Cc1cn2ccsc2n1)Nc1nc2c(s1)CCCC2`, the “growth rescue (activation)” value was inactive: 28.8%.
Consider `OC[C@@H]1CN(Cc2ccccc2)C[C@H](n2ccc3c(N4CCCC4)ncnc32)O1`, for which the “growth rescue (activation)” value was inactive: 7.55%.
For `COc1ccc([N+](=O)[O-])cc1NC(=O)c1cccnc1`, the “growth rescue (activation)” value was inactive: -5.07%.
On to `CCOc1ccc(/C=C2\SC(=S)N(NS(=O)(=O)c3ccc(C)cc3)C2=O)cc1OC`, for which the “growth rescue (activation)” value was inactive: -0.0173%.
In the case of `Cc1cc(C)c(S(N)(=O)=O)c(C)c1N(C)S(=O)(=O)c1ccccc1`, the “growth rescue (activation)” value is inactive: 1.23%.
Regarding `CCc1ccc(-n2c(SCc3ccccc3C)nc3[nH]ncc3c2=O)cc1`, the “growth rescue (activation)” value is inactive: 27.3%.
Regarding `CCOC(=O)c1sc(N)c(C(N)=O)c1C`, the “growth rescue (activation)” value is inactive: 11.5%.
Regarding `O=C(Nc1ccc([N+](=O)[O-])cc1Br)c1cccnc1`, the “growth rescue (activation)” value is inactive: 27%.
As for `Cc1ccc(S(=O)(=O)NN2C(=O)c3ccccc3NC2c2ccco2)cc1` (centres undefined), the “growth rescue (activation)” value was inactive: -5.14%.
As to `Cc1ccc(CN2C(=O)CCC2C(=O)NC(C)C)cc1` (centres undefined), the “growth rescue (activation)” value was inactive: 15.4%.
Take `CCOC(=O)CNC(=O)CSc1ncccc1-c1nc2ccccc2[nH]1`: the “growth rescue (activation)” value was inactive: -1.82%.
In the case of `CON(C)S(=O)(=O)c1ccc2c(c1)N(Cc1ccc(C)cc1)C(=O)C1CCCN21` (centres undefined), the “growth rescue (activation)” value is inactive: 0.395%.
With `COc1cc(NC(=O)CN2C(=O)NC(C)(c3ccc4ccccc4c3)C2=O)c(C)cc1[N+](=O)[O-]` (centres undefined), the “growth rescue (activation)” value was inactive: 9.65%.
Consider `O=C(COC(=O)c1cnccn1)c1ccc(OC(=O)c2ccccc2)cc1`, for which the “growth rescue (activation)” value is inactive: 0.723%.
The value for `COc1ccc(NC(=O)c2cc(S(=O)(=O)N3CCOCC3)cs2)cc1` was inactive: 6.57%; that for `COc1ccc(NC(=O)Cc2ccsc2)c(OC)c1` was inactive: 18%; that for `O=C(COC(=O)c1cc(S(=O)(=O)Nc2ccccc2Cl)ccc1O)Nc1ccc(F)c(F)c1F` was inactive: 7.94%.
On to `COc1cc2ccccc2cc1C(=O)Nc1ccc2oc(-c3ccc(Cl)cc3)nc2c1`, for which the “growth rescue (activation)” value is inactive: 9.29%.
In the case of `O=C(O)CSCC(=O)Nc1ccc(Cl)cc1C(F)(F)F`, the “growth rescue (activation)” value was inactive: 5.17%.
In the case of `COc1ccc(N(CC(=O)NCc2ccccc2OC)S(=O)(=O)c2ccccc2)cc1`, the “growth rescue (activation)” value was inactive: -14.4%.
Take `COc1ccc2c(c1OC)C(=O)N1c3ccccc3C(=O)N(c3ccccc3)C21` (centres undefined): the “growth rescue (activation)” value is inactive: 34.5%.
Turning to `COCCCNC(=S)N1CCCC(c2nc3cc(C)c(C)cc3[nH]2)C1` (centres undefined), the “growth rescue (activation)” value is inactive: 8.91%.
Consider `COCCCC1CCN(C(=O)C2CCC(=O)N(Cc3ccccc3F)C2)CC1` (centres undefined), for which the “growth rescue (activation)” value was inactive: 19%.
In the case of `Cc1cc(=O)n2c(sc3ccccc32)c1C#N`, the “growth rescue (activation)” value was inactive: -30.6%.
For `COc1ccc(F)c(CN(C)CC2CCCN(CCc3ccc(F)cc3)C2)c1` (centres undefined), the “growth rescue (activation)” value was inactive: 7.23%.
Consider `O=c1c(Cl)c(N2CCN(c3ccc(F)cc3)CC2)cnn1-c1nc2ccccc2s1`, for which the “growth rescue (activation)” value was inactive: 9.6%.
`O=C(Nc1cccc(S(=O)(=O)Nc2ccccc2F)c1)c1ccco1`: the “growth rescue (activation)” value is inactive: 22%.
Consider `Cc1cc(C)n(-c2ccc(C(=O)Nc3cc(S(=O)(=O)N(C)C)ccc3Cl)cc2)n1`, for which the “growth rescue (activation)” value is inactive: 14.9%.
The value for `COc1cc(CN2C[C@@H](CO)O[C@@H](n3cnc4c(N5CCOCC5)ncnc43)C2)cc(OC)c1OC` was inactive: 1.98%; that for `O=C1CSC(=S)N1/N=C/c1c(F)cccc1F` was inactive: 35.2%; that for `Cc1cccc(Nc2nc(NCc3ccco3)nc(N)c2[N+](=O)[O-])c1` was inactive: 12.5%.
On to `O=C(N/N=C/c1ccncc1)c1ccc(NC(=O)c2cccc(Cl)c2)cc1`, for which the “growth rescue (activation)” value is inactive: 11.3%.
The value for `COCCNC(=S)N1CCCC(CO)C1` (centres undefined) was inactive: 14.1%; that for `O=C(COc1ccc(S(=O)(=O)NC2CCCCC2)cc1)NC1CCCC1` was inactive: -9.28%; that for `COc1ccc(NC(=O)c2c(F)cccc2Cl)cc1S(=O)(=O)N1CCOCC1` was inactive: 5.14%.
Consider `NS(=O)(=O)c1ccc(NC(=S)Nc2ccc(C(=O)N3CCCCC3)cc2)cc1`, for which the “growth rescue (activation)” value was inactive: 18.5%.
On to `COc1ccc(CC(=O)Nc2ccc(S(=O)(=O)N3CCCC3)cc2)cc1OC`, for which the “growth rescue (activation)” value was inactive: 23%.

These data come from PubChem BioAssay AID1347073 (National Center for Advancing Translational Sciences (NCATS), 2019).
